# Results taken from the supplement of paper PMC3334620.
# Whole data set: some 33,000 sequences, median “E-score (-0.5 to 0.5)” near -0.021, cut for the highest 2% near 0.32. The list shows a part of the results.
# Molecular target: T1, Zap1 (UniProt P47043)
# T1 sequence: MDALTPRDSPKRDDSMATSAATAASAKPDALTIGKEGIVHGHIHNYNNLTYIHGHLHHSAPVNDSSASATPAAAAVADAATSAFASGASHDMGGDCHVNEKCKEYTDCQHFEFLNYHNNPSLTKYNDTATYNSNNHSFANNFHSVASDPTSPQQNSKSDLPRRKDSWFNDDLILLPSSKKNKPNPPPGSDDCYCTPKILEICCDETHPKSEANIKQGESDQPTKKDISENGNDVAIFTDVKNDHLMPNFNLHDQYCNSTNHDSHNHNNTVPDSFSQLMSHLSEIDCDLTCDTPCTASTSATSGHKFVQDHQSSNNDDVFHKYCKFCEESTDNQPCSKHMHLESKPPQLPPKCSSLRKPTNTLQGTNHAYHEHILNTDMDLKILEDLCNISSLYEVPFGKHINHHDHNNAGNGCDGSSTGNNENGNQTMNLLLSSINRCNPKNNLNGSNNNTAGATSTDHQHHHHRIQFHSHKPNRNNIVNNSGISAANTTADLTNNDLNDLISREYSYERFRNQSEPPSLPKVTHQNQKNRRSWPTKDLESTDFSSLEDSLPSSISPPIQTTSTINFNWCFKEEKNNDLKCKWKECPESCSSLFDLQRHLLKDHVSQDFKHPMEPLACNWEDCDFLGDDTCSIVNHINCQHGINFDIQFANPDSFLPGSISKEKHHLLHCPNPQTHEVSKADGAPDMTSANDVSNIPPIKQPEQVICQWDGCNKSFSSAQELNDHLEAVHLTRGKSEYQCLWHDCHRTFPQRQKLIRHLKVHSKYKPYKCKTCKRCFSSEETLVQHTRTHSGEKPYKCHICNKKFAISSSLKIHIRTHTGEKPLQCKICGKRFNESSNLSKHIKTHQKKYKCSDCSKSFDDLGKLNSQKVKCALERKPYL
# Test: PBM E-score (8-mer binding enrichment) (E-score (-0.5 to 0.5)); higher = stronger / more preferred TF binding; most listed sequences are background and not binding sites
# Conditions: protein concentration: 200 nM; construct: GST-full length
# Procedure, shortened: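 Yeast transcription factors carrying a GST tag, as full-length proteins or DNA-binding domains, were produced by PURExpress in vitro transcription/translation. About 100-200 nM protein was applied to universal all-10-mer Agilent arrays, double-stranded by primer extension on fresh or once-stripped slides. Bound protein was detected with fluorescent anti-GST, and scans were normalised with masliner. The Universal PBM Analysis Suite gave each ungapped eight-base word, pooled with its reverse complement, an E-score, a modified Wilcoxon-Mann-Whitney statistic.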
row,Sequence,PBM E-score
1,CTCCTACC,-0.0885
2,AAAGTCTT,-0.185
3,TTGAAAAA,0.17
4,AGAGAAGA,-0.00894
5,CCCCCAGA,-0.324
6,ACTCTACT,-0.0105
7,ACGACGAA,-0.0692
8,CACCCAAC,-0.0206
9,ATTGCGTC,0.0358
10,AACTTATG,0.0243
11,CGTAATTC,-0.0754
12,ATAAGCTA,0.124
13,CGCCAGTC,-0.214
14,ACTTGCAG,-0.223
15,CTTAACCC,0.387
16,AGCCGGCC,-0.0497
17,ACCTACTC,-0.00283
18,CACGGTCA,0.262
19,AAGTCAGA,-0.0953
20,AAGCTTGA,-0.0977
21,GCCCAAAC,0.0979
22,AGTATGTC,-0.093
23,GAAATATC,0.0294
24,AGGTAACT,0.237
25,CCTCAAGA,-0.00944

row,Sequence,PBM E-score
1,ACCAACAA,0.316
2,CCCTTTCC,-0.0587
3,AAAGAGAA,-0.168
4,TCAACGAA,0.0314
5,AGCGAAAA,-0.0505
6,ATGGCCAG,0.268
7,GTATGCCA,-0.0791
8,AACGCGGT,0.159
9,CAATCTTA,-0.094
10,CTTGTTTA,0.126
11,ACTTTCCC,-0.117
12,ACCAGCGG,0.0819
13,ACCTTGCA,0.219
14,CCGTGATC,0.0852
15,CCCAAAAA,0.247
16,TAATCGTA,0.079
17,TCCTGAGA,-0.14
18,AGAGGATC,-0.158
19,AAGTAATA,0.0823
20,AGTTCAAT,-0.149
21,CCAAGAAC,-0.0543
22,CCGCCTAC,0.0299
23,ACCTAATG,0.0059
24,GCACACAC,-0.1
25,GTCCACAA,0.063

row,Sequence,PBM E-score
1,TTAGCTAA,-0.107
2,ACTACAAA,0.135
3,ATTGCGTG,-0.0118
4,ACGATCCG,-0.0805
5,CGGTCCGC,-0.0387
6,ACCACAAG,0.259
7,ATGTCGAG,-0.112
8,GGTCGAGA,0.0285
9,GCAAGCTA,-0.0697
10,ATTAGATC,-0.0395
11,CACCTACA,0.0158
12,AACTGACT,-0.135
13,GCGTACAC,-0.046
14,ATCGGATG,-0.116
15,AACGTAAG,-0.194
16,CTTGCAGC,-0.0954
17,GATTCTGA,0.0221
18,CAATACTG,0.0373
19,ATCTTTAC,0.0364
20,GCCCGAAC,-0.142
21,ACTCCGTC,-0.104
22,AGCTAGCC,-0.182
23,CCTCAACC,0.00507
24,AAGTGGGA,-0.0615
25,CTCTCGGC,-0.00869

row,Sequence,PBM E-score
1,GGAAGGAA,-0.202
2,AGTCCCTC,-0.299
3,ACTTGTGA,0.0666
4,ATTCGAGA,0.0862
5,AAGGTATG,0.226
6,CTCCCGCA,-0.123
7,GACATCAA,0.104
8,GGTAGTAC,0.248
9,ACCCACCC,0.373
10,AGAAAGCA,-0.00472
11,TGAAAACA,0.202
12,AACACAAG,-0.00912
13,AACACAGC,0.11
14,CGGCTTGC,-0.0434
15,ATCTATAC,-0.0224
16,CCACTCCC,-0.151
17,CAGGCGGC,-0.228
18,CATATCGA,-0.118
19,GGTTGGGA,0.11
20,CTCAACAC,0.0925
21,ACACTTAT,-0.101
22,CACTTCAG,-0.152
23,ACCGTACT,0.141
24,AATCCTCT,-0.302
25,ACCGTTGA,0.0816

row,Sequence,PBM E-score
1,CTGACCCC,0.12
2,ATACAGGG,0.174
3,CTCTACTA,0.0286
4,CAGTCTCG,-0.268
5,ATACGCGA,0.108
6,AATACGAT,0.0187
7,CCGATGCA,-0.0314
8,CCGGATCA,-0.0518
9,GTTGGCGA,-0.0774
10,CCTGTGCC,-0.107
11,GATAGCGA,-0.099
12,ATACCGCA,0.0517
13,CTGGTCCA,-0.0205
14,AGAAGAAG,0.00119
15,CTCAGGCA,-0.158
16,CCAGCTAG,-0.187
17,GCCGCAAC,0.218
18,ATACAGAG,0.023
19,AGTACGTG,-0.117
20,ATCAACGC,-0.0956
21,GGTGCCCA,0.0667
22,GCTGACAA,0.118
23,AAAATCCC,-0.0263
24,CTTGCAAC,0.0364
25,AAGCCTGA,-0.233

row,Sequence,PBM E-score
1,GTACTAGA,0.169
2,CGCGGTCA,0.23
3,ACTTACAG,0.0195
4,ACTTAGTA,0.0752
5,ACATCGGG,-0.078
6,GAACCTAC,0.0424
7,CTAAGTCA,-0.245
8,GGTTGGCA,0.0593
9,CATTCGTC,-0.111
10,AATTCGCC,-0.052
11,ATAGCTGC,-0.13
12,GCGGGCAA,0.0256
13,CTACGTGA,-0.0697
14,CCCGAGAG,0.168
15,CCCAACTA,0.00333
16,CCCATCTA,-0.0762
17,ACACCATA,0.219
18,ACTACGTA,-0.194
19,ATGATCCA,-0.0668
20,AGCATATC,-0.21
21,AATATTGT,0.287
22,GCGTTTGA,-0.0767
23,AATCTAAC,0.127
24,TAACCATA,0.44
25,AAAGAGGG,-0.104

row,Sequence,PBM E-score
1,CTGCCATA,-0.0723
2,AGCGCTAC,-0.122
3,GGCGAAAC,-0.0392
4,TGGATCCA,-0.00387
5,GTAGATGA,0.0898
6,ATTTGCGC,-0.0712
7,GATCCCAC,-0.0425
8,AGTGTTAT,0.125
9,AATCTTAG,-0.0102
10,GAGCAAAA,-0.128
11,ATCCAGGA,-0.0629
12,CACTACGC,-0.163
13,AACCATAC,0.159
14,TGACTACA,-0.068
15,CAACTGCG,-0.2
16,CTCCCTCC,-0.076
17,GAACAGCC,-0.137
18,ACATTCGG,-0.116
19,ACTAGTAA,0.161
20,AGAGTCAC,0.0197
21,CACTTGGA,-0.00068
22,CAGGTAGG,-0.0242
